The source gives no read counts; variants with many changes may rest on few reads.
B1: LINE1-mini (parent)
chain: GGCAGAGCUCAACACAGCGUGGCAAAGUGGCUGUGGCUAGACUGCC

Variants of: B1
Assay: self-cleavage, relative activity (ratio to wild type); higher = more cleavage; in vitro, sequencing; the parent is a self-cleaving ribozyme

Variant | self-cleavage
G1U C3G G30U A39C | 0.03
G19A C31U G40U | 0.05
C3G A12G C13G | 0.16
C3G A14C G29C G30A U32C | 0.04
G2C A11U G21U | 0.04
G21A C23A C45A | 0.59
G2C C13A G17C G29U G33A U34A | 0.11
U20G A25U G27A | 0.93
G5A A14G U38C | 0.14
G7C C8A A12G | 0.1
U20A A25U C31U C37A | 0.1
G22U G27A C37A C46U | 0.02
C23U G27A G44C | 0.29
A4U C13A G22A | 0.12
C3G C18A C42A G44C | 0.09
C15U U20A U28C G33A G40U | 0.3
C10A G21C U32G U34C | 0.01
C10U A11G C13U G27A | 0.03
G22C C23A G40A | 0.14
G1U U9C C18A G27U G44A | 0.01
C10U A14U G36A | 0.04

Variant | self-cleavage
G5U C13U A14G G40A | 0.04
C23U A24C C31A U32A | 0.04
C3A C18U U20A A39U | 0.08
G2U U20C G27A | 0.01
C8A A11C C23G U34A G44C | 0.02
A14G U20A G30A G35U | 0.04
A11G G17U G19A G30C | 0.03
C10A A11C G27U | 0.01
C3A G5A A16U U34A G35U U38A | 0.13
U9G C10G C13A G40U | 0.03
A26G G27A U34G G36U G40C C45U | 0.04
G2A A11C U43A | 0.03
A4U G5A A25G | 0.24
C10G A14G G35U | 0.02
G5U A16C G22A G27A | 0.04
G1C G7C A12U A24C C31U G36U | 0.01
C10A G22C G36A | 0.05
G2C U20G A24G | 0.08
G21U C23G C37G | 0.04
A12U C23G G36U G40A C42G | 0.15
A6G G30A A41C | 0.06

Variant | self-cleavage
A14U A24C C42G C45U | 0.04
G21U G27C G35U G36U | 0.04
G5A C15U G22U U38G A41G | 0.02
C3A G17C G21A | 0.22
G2C A26G U28C C42A | 0.01
A6U U28C G44A | 1.87
C3U C8G G22U A26C | 0.05
A11G A25C C31G A39C G44U | 0
C10U C13A G21A | 0.03
G1U C31G U38G G44C | 0.01
C8G C13U C31G | 0.03
A12G G27U U32A C37A C42A | 0.05
C18A A26G G27C A39G | 0.03
G30A C31U G40U | 0.03
G2A A6U A39U | 0.33
C18A U43A C45A | 0.04
U9G A14G A25C U38G | 0.01
U9G C13A G40A G44U | 0.03
G1C A16U C23G U43A | 0
C8G A11C C18U C31A G33A | 0.02
C8U U38C G40C C45A | 0.07

Variant | self-cleavage
A11U G21A G27U | 0.39
A14C A16G G29A C31U | 0.04
G7A G27U G30U C46U | 0.05
G35C C37A C46U | 0.02
G17U G40U A41G | 0.12
G2A C8A G30A G40U C46G | 0.48
G2A C15A C23A A25G G35A G36U U43A | 0.07
G29C U38A G40U | 0.05
C8G A12U G44U | 0.02
C8G U9C C23G A25C G33U | 0.02
C10G G19U U20A C42G | 0
G1U C3G A26U G29U G35C | 0.36
G2C G21A C42U | 0.29
G2A A16C G22A C46A | 0.42
G2C C10U G17A | 0.03
C13A C23A A26U C46A | 0.07
G2C C10A C23A | 0.01
U38G A39U U43C | 0.07
U32C A41G C45U | 0.06
A12C G19A A25U G29A | 0.01
U9A A12C C13A G29U | 0.02

From the RNAGym collection of RNA variant scans (doi:10.7554/elife.90254)
